Consider 14 molecules from paper PMC12136788.

The other results are listed elsewhere or left out.

B1: chr14:89307221:89307222:+_ENSG00000165533_ENST00000346301|hu_mus|hu_hu_hu_mus_False|18_68 (ssRNA)
RNA: GGGAGUUCUACAGUCCGACGAUCUCCUGUUUGGUUAGUGCCAGGGAGCUUCAAAGAUGUGCCAGGGCGUGGAACUUGAGCAAUAGCAUUUUCAUCCAGGAUCAUUUCAGCAAUUCCUUCCUGAUCUACAUCAAUUUCAUCUAUCAACAGAGGAUUGAGCAUCA
B2: chr3:148802587:148802588:-_ENSG00000071794_ENST00000310053|hu_mus|hu_hu_hu_mus_False|48_68 (ssRNA)
RNA: GGGAGUUCUACAGUCCGACGAUCUCCAACAACUUGUCCUCUCAUAGUUCCAAAUAAAACCAAAUCUACUUCUUCAUCACUCGUUAGAAAGUCAUCUGGAGGAAUAAUGUCUUGGAAUUCAAAAUGUGGCAAGAAAGUUGAGUACAACAGAGGAUUGAGCAUCA
B3: chr2:202488911:202488912:-_ENSG00000155755_ENST00000286196|hu_mus|hu_hu_hu_mus_False|78_108 (ssRNA)
RNA: GGGAGUUCUACAGUCCGACGAUCAUUUAACAUUUUUUCAUAAUCUCCAGUAGCAUUCAGUAUUAUAGUAACAAAAGCUCAAUUGUAAAUACAUGUAUCUUAUAAAAAUACACUUAAAAACACGAGUGGGGAGCGCAGGCGCCACAACAGAGGAUUGAGCAUCA
B4: chr7:40134317:40134318:+_ENSG00000065883_ENST00000340829|hu_mus|motif|central (ssRNA)
RNA: GGGAGUUCUACAGUCCGACGAUCGGAAGGGUCAUUGCUGUUUGUGAGGACUGUGAUAGGACCAUGGCUAUAUUCAAAUCGGUGGUCCUUGUCUCCACUAAACAACAUGGGACCAGCAUUGAGGUAAAUGUCUCCAUAUCCAGCCAACAGAGGAUUGAGCAUCA
B5: chr14:58718896:58718897:+_ENSG00000100567_ENST00000216455|hu_hu|motif|central (ssRNA)
RNA: GGGAGUUCUACAGUCCGACGAUCCCGAUCAACAUUAAAAAGUCUUUUGUUGGAACCUUCUUCAUAAAGUUUAGAAAGGACGGAUUUUUCUACCCCAAAGACAACACCAUCUUUGCAUCUGAUUCCAAUAGCUGUACUACUAUUCAACAGAGGAUUGAGCAUCA
B6: chr1:205589228:205589229:-_ENSG00000158711_ENST00000357992|hu_mus|FALSE|FALSE (ssRNA)
RNA: GGGAGUUCUACAGUCCGACGAUCGUGACCACAAGGGCGGGUGUCAGUUCUAACCCUUUGGGCUUCUUAGAUCUUGAUGAGUUAUUUGUUUUGUCCUUUUCUGGCAAAGCUGAAUCCUCAUUUUUAGGCUCCAGUGAUAAGUUCCAACAGAGGAUUGAGCAUCA
B7: 98684097_98684217_956_CDS_ENSMUSG00000078676_ENSMUST00000169695|mouse|control|control (ssRNA)
RNA: GGGAGUUCUACAGUCCGACGAUCGCGGCCAUCCUUGAAGCCCCCAGAUCGAGAGUAAUUCCUGGAUGCAGACAUGCGGCCAGUACCUGCCGUGUUCCUGUUAAUAAAUGUCCUAGGUGGUAGAUUGCCCCCAGGACCCUGGUGCAACAGAGGAUUGAGCAUCA
B8: chr8:22470488:22470489:+_ENSG00000158941_ENST00000522599|hu_hu|motif|central (ssRNA)
RNA: GGGAGUUCUACAGUCCGACGAUCUGACCCAUCACCAACAGUAAGAAACCACAUUGUUAUAUGUAUUCAAUACAAACUGAACGGAAAGAACUGGAAACAAUCGAAAUCCCUCACAUUCAAUAAAUGGAAAAAGAAUCCAUGCUACAACAGAGGAUUGAGCAUCA
B9: chr12:109526192:109526193:-_ENSG00000189046_ENST00000429722|hu_mus|FALSE|FALSE (ssRNA)
RNA: GGGAGUUCUACAGUCCGACGAUCGUGUGCCAGCUGCAGCCUGACCACCUCCACUGUCCUCCGGGGCCUCUUCCCUCGAGAGUCUUUGUGCCGGAAAAUGAAGUCUCUGCAAGCGCCAAAGGAGACAGACGCGAUGGGGCUCCCCAACAGAGGAUUGAGCAUCA
B10: chr10:71917581:71917582:-_ENSG00000079332_ENST00000373241|hu_hu|FALSE|FALSE (ssRNA)
RNA: GGGAGUUCUACAGUCCGACGAUCCUCAACUUUGGAUUCCACGAGGCGAGAAUGAUCUGCACAGUCCACCAGAAAGACAAUCCCAUUAAUUGCUGGGAGAUAAUUUUUCCAAACGCGACGUGCUUGCUCGUGCCCACCAAGAUCCAACAGAGGAUUGAGCAUCA
B11: chr3:151873496:151873497:+_ENSMUSG00000028034_ENSMUST00000166984|mus_mus|FALSE|FALSE (ssRNA)
RNA: GGGAGUUCUACAGUCCGACGAUCCGCUACAGCACACGCUGCCGUUUCCUCGCGGAGGGAGGCGCCGCUCUCGGUUAACUGCUAAGAAAGGAAGAAGAUGGCGGCCGUCGAGGCUCUAUCACAUUCUUGCACGACCAUCGUGCCCAACAGAGGAUUGAGCAUCA
B12: chr15:79189513:79189514:+_ENSG00000185787_ENST00000426013|hu_mus|motif|central (ssRNA)
RNA: GGGAGUUCUACAGUCCGACGAUCCUCCUUUUAUUUUCUCUGUUUAAAAUCAAAGAGGAAACAAACAACUCUGUUAUACACGGACGGUCUUCAAAGUACAUCAUUUGUACAAGAGAAGGACUAAGAACCAAACUGUUUACAGAGCAACAGAGGAUUGAGCAUCA
B13: chr8:113366663:113366664:-_ENSMUSG00000033732_ENSMUST00000042012|mus_hu|FALSE|FALSE (ssRNA)
RNA: GGGAGUUCUACAGUCCGACGAUCCAAUUUCUGUUUCUCAAUGGCACUAAUCAUAACGGCUCGCCCUUUGGGAUCCACAGCUAAGAACUGGCCAGGAACGAUGCGACGGCAUCCACUCUUGCCAAAGGUUUCUUGGUGAAUCUUCAACAGAGGAUUGAGCAUCA
B14: 93744982_93746653_487_CDS_ENSMUSG00000054079_ENSMUST00000066888|mouse|control|control (ssRNA)
RNA: GGGAGUUCUACAGUCCGACGAUCUUCCUCAUCUUCAUCAUCUUCAUCCACCCAAACUGGCUGCUUCUUCUUCUGAGAAAAAAUGUCUUUUGCUUCAUUUUCCACUUCCGAUUCAUCUGAGCUUCCAUGUAGCUGACCCCGCGACAACAGAGGAUUGAGCAUCA

The target of this assay is T1, UNK ZnF1-3 (human, UniProt Q9C0B0 31-174).
T1 sequence: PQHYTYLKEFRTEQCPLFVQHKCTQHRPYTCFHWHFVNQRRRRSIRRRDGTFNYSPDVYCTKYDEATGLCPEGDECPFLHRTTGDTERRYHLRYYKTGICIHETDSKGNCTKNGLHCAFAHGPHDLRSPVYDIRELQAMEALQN
The assay is described as follows: nsRBNS (natural sequence RNA bind-n-seq); RBNS binding buffer (assumed for nsRBNS): 25 mM Tris pH 7.5, 150 mM KCl, 3 mM MgCl2, 0.01% Triton X-100, 500 ug/ml BSA, 20 U/ml SUPERase-In, 4 C; UNK is unkempt and MSI1 is Musashi-1; names of the RNAs are library labels; protein concentration not given here; high values mean tight binding.
The molecule B1 gave a binding signal of 1.02 enrichment R. The result for B2 reads 1.16 enrichment R. Under B3 stands 1.06 enrichment R. Under B4 stands 0.918 enrichment R; under B5, 1.09 enrichment R.

The molecule B6 displayed a binding signal of 0.577 enrichment R. Consider B7, for which the binding signal is 0.933 enrichment R. Molecule B8 came in with a binding signal of 1.16 enrichment R. The result for B9 reads 1.09 enrichment R; that for B10, 1.68 enrichment R; that for B11, 0.928 enrichment R.

Turning to B12, the binding signal is 1.33 enrichment R. Turning to B13, the binding signal is 0.828 enrichment R.

In turn, B14 gave a binding signal of 0.689 enrichment R.
